# Measurements reported in paper PMC12529666.
# The list shows a part of the results, in another mix than the full data. At the low end of the ranking, values are background and their order means little. The list shows a part of the results.
# Tests used:
# [1] = target: AGO2 WT (phosphosite mutant background) S387D + S824A + S828D + S831D + S834A (UniProt Q9UKV8); assay: RNA Bind-n-Seq (nitrocellulose filter binding and sequencing); settings: constant regions annealed to DNA blockers; guide miR-122 5' phosphate; 30 mM Tris pH 8.0, 100 mM potassium acetate, 2 mM magnesium acetate, 0.5 mM TCEP, 0.005% NP-40, 0.01 mg/ml yeast tRNA; 3 nM AGO2-miR-122, 100 nM RNA library …; high values mean tight binding
# [2] = target: AGO2 F182del S387D + S824A + S828D + S831D + S834A + del182-182 (UniProt Q9UKV8); assay: as above; settings: constant regions annealed to DNA blockers; guide miR-122 5' phosphate; 30 mM Tris pH 8.0, 100 mM potassium acetate, 2 mM magnesium acetate, 0.5 mM TCEP, 0.005% NP-40, 0.01 mg/ml yeast tRNA; 3 nM AGO2-miR-122, 100 nM RNA library …; high values mean tight binding
Sequence,binding signal (fold enrichment over input) [1],binding signal (fold enrichment over input) [2]
GAGUUCUACAGUCCGACGAUCCCAACGUGUCUCGCACCUGGAAUUCUCGGGUGCCAA / UGGAGUGUGACAAUGGUGUUUG / GATCGTCGGACTGTAGAACTC / TTGGCACCCGAGAATTCCA,0.0861,0.0405
GAGUUCUACAGUCCGACGAUCCCAACACGUCUUGCACCUGGAAUUCUCGGGUGCCAA / UGGAGUGUGACAAUGGUGUUUG / GATCGTCGGACTGTAGAACTC / TTGGCACCCGAGAATTCCA,0.0864,0.0483
GAGUUCUACAGUCCGACGAUCCCAACAUGUUCUGCACCUGGAAUUCUCGGGUGCCAA / UGGAGUGUGACAAUGGUGUUUG / GATCGTCGGACTGTAGAACTC / TTGGCACCCGAGAATTCCA,0.0901,0.0443
